57 compounds from paper PMC4336329 (PLoS ONE, 2015) can be followed below.

Screen size: about 310,000 compounds; about 2,200 (0.71%) showed an effect of 50% or more. Effects have a minus sign here. The list shows a part of the results.

Chain of human ether-à-go-go-related gene (hERG) potassium channel (Q12809 whole entry, looked up): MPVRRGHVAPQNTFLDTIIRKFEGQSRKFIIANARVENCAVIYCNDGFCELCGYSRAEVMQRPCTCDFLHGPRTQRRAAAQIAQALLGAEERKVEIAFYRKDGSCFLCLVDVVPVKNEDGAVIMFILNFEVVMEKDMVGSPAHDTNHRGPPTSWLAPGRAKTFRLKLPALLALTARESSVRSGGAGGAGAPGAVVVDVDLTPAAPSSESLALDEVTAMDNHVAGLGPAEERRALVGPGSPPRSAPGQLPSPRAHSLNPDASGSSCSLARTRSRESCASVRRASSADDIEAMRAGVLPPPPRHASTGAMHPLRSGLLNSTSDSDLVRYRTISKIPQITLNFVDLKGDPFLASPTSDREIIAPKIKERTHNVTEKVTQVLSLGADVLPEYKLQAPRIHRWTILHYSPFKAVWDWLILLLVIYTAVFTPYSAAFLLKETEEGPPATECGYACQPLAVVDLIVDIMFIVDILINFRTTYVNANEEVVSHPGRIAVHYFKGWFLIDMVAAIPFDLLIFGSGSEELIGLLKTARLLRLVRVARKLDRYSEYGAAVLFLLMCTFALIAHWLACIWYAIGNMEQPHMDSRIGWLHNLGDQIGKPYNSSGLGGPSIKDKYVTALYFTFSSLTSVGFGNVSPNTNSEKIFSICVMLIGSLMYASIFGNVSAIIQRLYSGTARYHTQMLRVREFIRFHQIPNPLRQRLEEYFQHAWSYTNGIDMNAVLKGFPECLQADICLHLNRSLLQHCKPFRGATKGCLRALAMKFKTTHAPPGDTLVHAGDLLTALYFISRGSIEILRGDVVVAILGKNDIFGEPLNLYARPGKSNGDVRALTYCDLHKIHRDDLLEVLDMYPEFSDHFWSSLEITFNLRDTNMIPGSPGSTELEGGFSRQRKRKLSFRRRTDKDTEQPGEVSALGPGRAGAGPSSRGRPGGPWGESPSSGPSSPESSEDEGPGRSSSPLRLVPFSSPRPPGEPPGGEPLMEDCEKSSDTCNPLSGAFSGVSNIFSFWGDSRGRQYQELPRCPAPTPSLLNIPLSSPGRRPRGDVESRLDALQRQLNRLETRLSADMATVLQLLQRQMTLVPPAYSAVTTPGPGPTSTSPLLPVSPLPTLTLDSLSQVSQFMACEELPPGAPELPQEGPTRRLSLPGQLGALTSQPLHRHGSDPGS

This assay concerns the target human ether-à-go-go-related gene (hERG) potassium channel (human, UniProt Q12809). Put plainly: primary screen, population patch clamp on CHO cells stably expressing hERG.
With `N#CCC(=O)Nc1ccc(C(=O)Nc2cccc(S(N)(=O)=O)c2)cc1`, the “hERG current change (%, negative = inhibition) at 1uM” value was 16.3%.

For the compound `CC(C)c1ccc(-n2nc3ccc(N)cc3n2)cc1`, the “hERG current change (%, negative = inhibition) at 1uM” value stood at 4.47%.

Take `COC(=O)c1sccc1NC(=O)CC1C(=O)NCCN1C(=O)c1ccc(N(C)C)cc1` (stereo not drawn): the “hERG current change (%, negative = inhibition) at 1uM” value was 12.7%.

Take `O=C(O)COc1ccccc1/C=C1\SC(=S)N(/N=C/c2ccccc2O)C1=O`: the “hERG current change (%, negative = inhibition) at 1uM” value amounted to 22.4%.

In the case of `Cc1oc2ccc(O)cc2c1C(=O)OC(C)C`, the “hERG current change (%, negative = inhibition) at 1uM” value amounted to 8.39%.

With `CCCNc1c(NC(=O)c2cccs2)c(=O)oc2ccccc12`, the “hERG current change (%, negative = inhibition) at 1uM” value stood at 14.1%.

Consider `CCOC(=O)c1c(C)[nH]c(C(=O)N(C)Cc2cccc(OC)c2OC)c1C`, for which the “hERG current change (%, negative = inhibition) at 1uM” value is recorded as 15.4%.

On to `O=C(COc1ccccc1)Nc1ccc2c(c1)nc1n2CCSC1`, for which the “hERG current change (%, negative = inhibition) at 1uM” value was -3.52%.

With `COC(=O)CCC(=O)OC1(C)C(=O)C=C2C=C(c3ccsc3)OC=C2C1=O` (stereo not drawn), the “hERG current change (%, negative = inhibition) at 1uM” value came to 7.46%.

For the compound `Cc1cc(C(=O)Nc2sc3c(c2C#N)CCC3)no1`, the “hERG current change (%, negative = inhibition) at 1uM” value is given as 15.3%.

`Cc1sc2nc(CSc3nnnn3-c3ccc(Cl)cc3)[nH]c(=O)c2c1C`: the “hERG current change (%, negative = inhibition) at 1uM” value worked out at 8.71%.

With `Cc1ccc(C(=O)N/C(=C/c2ccco2)C(=O)N2CCCCC2)cc1`, the “hERG current change (%, negative = inhibition) at 1uM” value was found to be 4.07%.

As for `CCc1ccc(NC(=O)CSc2nnc(C)c(=O)n2N)cc1`, the “hERG current change (%, negative = inhibition) at 1uM” value is 13.4%.

Turning to `Cc1cccc(-n2c(C)nc3ccsc3c2=O)c1`, the “hERG current change (%, negative = inhibition) at 1uM” value was 16.9%.

Turning to `O=C(COc1cccnc1[N+](=O)[O-])Nc1cccc2ccccc12`, the “hERG current change (%, negative = inhibition) at 1uM” value stood at 10.7%.

With `Cc1nc2c(=O)n(-c3cccc(C(F)(F)F)c3)nc(C)c2s1`, the “hERG current change (%, negative = inhibition) at 1uM” value turned out to be 11.7%.

In the case of `CCC(NS(=O)(=O)c1ccc(OC)cc1)C(=O)NCCC1=CCCCC1` (stereo not drawn), the “hERG current change (%, negative = inhibition) at 1uM” value is listed as 14.6%.

As to `CCCN1CCN(S(=O)(=O)c2ccc(OC)c(Br)c2)CC1`, the “hERG current change (%, negative = inhibition) at 1uM” value turned out to be 11.3%.

`O=C(Cn1nnc2ccccc21)NNC(=S)NC1CCCCC1`: the “hERG current change (%, negative = inhibition) at 1uM” value worked out at 12.4%.

Take `CCC(C(=O)NC1CCCC1)N(C(=O)c1snc(C(N)=O)c1N)c1ccc(OC)cc1` (stereo not drawn): the “hERG current change (%, negative = inhibition) at 1uM” value came to 17%.

Consider `Cc1nc2oc3c(NCc4ccccn4)ncnc3c2c2c1COC(C)(C)C2`, for which the “hERG current change (%, negative = inhibition) at 1uM” value is 4.58%.

For the compound `COc1ccc(C(=O)C2CCCN(Cc3ccc(C#CCCO)cc3)C2)cc1F` (stereo not drawn), the “hERG current change (%, negative = inhibition) at 1uM” value is on record as -2.54%.

Consider `Cc1ccc(CNS(=O)(=O)c2ccc(-n3cnnn3)c(C)c2)cc1`, for which the “hERG current change (%, negative = inhibition) at 1uM” value is listed as 7.87%.

On to `CN1CCN(c2c[nH]c(=O)[nH]c2=O)CC1`, for which the “hERG current change (%, negative = inhibition) at 1uM” value is on record as -4.58%.

For the compound `CC1=C(C)CC(C(=O)NNC(=O)c2cccc(Cl)c2)C(C(=O)O)C1` (stereo not drawn), the “hERG current change (%, negative = inhibition) at 1uM” value stood at 11.1%.

Regarding `Cc1ccc(NC(=O)CSc2nnc(CNC(=O)c3ccco3)o2)cc1Cl`, the “hERG current change (%, negative = inhibition) at 1uM” value worked out at 5.5%.

Regarding `CCN1C(=O)C(O)(CC(=O)c2ccc(-n3cccc3)cc2)c2ccccc21` (stereo not drawn), the “hERG current change (%, negative = inhibition) at 1uM” value turned out to be 0.704%.

With `NC(=O)CSc1nnc(NC(=O)c2ccc(S(=O)(=O)N3CCCCC3)cc2)s1`, the “hERG current change (%, negative = inhibition) at 1uM” value is given as -26.2%.

As to `CCCCn1c(=O)[nH]c(=O)c2c1nc(-c1ccc(OC)c(Br)c1)n2CC(C)C`, the “hERG current change (%, negative = inhibition) at 1uM” value worked out at 9.52%.

Consider `O=C(Nc1c2c(nc3ccccc13)CCCC2)c1ccccc1F`, for which the “hERG current change (%, negative = inhibition) at 1uM” value is on record as 6.97%.

On to `O=C(O)C1C2C=CC(C2)C1C(=O)Nc1cccc(F)c1` (stereo not drawn), for which the “hERG current change (%, negative = inhibition) at 1uM” value was 11.6%.

`O=C(C[n+]1ccc2c(c1)nnn2-c1ccccc1)c1ccc(Cl)cc1.[Br-]`: the “hERG current change (%, negative = inhibition) at 1uM” value was -20.1%.

As to `Cl.Fc1ccc(Nc2ncnc3ccccc23)cc1`, the “hERG current change (%, negative = inhibition) at 1uM” value was determined as 13.3%.

Regarding `CC(C)(C)OC(=O)N1CC(O)CC1C(=O)OCC(=O)c1ccc(-c2ccccc2)cc1` (stereo not drawn), the “hERG current change (%, negative = inhibition) at 1uM” value is 11.6%.

As for `Cc1cc(C)c2sc(N(CCCN(C)C)C(=O)c3ccc(S(=O)(=O)N4CCCc5ccccc54)cc3)nc2c1.Cl`, the “hERG current change (%, negative = inhibition) at 1uM” value worked out at 8.3%.

As for `COc1cccc(CC(=O)Nc2nc3ccccc3[nH]2)c1`, the “hERG current change (%, negative = inhibition) at 1uM” value came to 1.88%.

Turning to `NC(=O)CCNC(=O)c1ccc(Cl)cc1`, the “hERG current change (%, negative = inhibition) at 1uM” value is recorded as 10.5%.

`CC12CN3CC(C)(CN(C1)C3c1ccc(Cl)cc1Cl)C2=O` (stereo not drawn): the “hERG current change (%, negative = inhibition) at 1uM” value is on record as -0.613%.

As to `CC(=O)N(CCc1ccccc1C)Cc1cc2cc(C)ccc2[nH]c1=O`, the “hERG current change (%, negative = inhibition) at 1uM” value came out at 19.2%.

Take `COC(=O)CC1C(=O)NCCN1C(=S)Nc1ccccc1` (stereo not drawn): the “hERG current change (%, negative = inhibition) at 1uM” value worked out at 3.27%.

Turning to `COc1ccc2nc(SCC(=O)c3ccco3)[nH]c2c1`, the “hERG current change (%, negative = inhibition) at 1uM” value was 9.78%.

As to `COc1cccc(N2CCN(Cc3ccc(Cl)cc3)CC2)c1`, the “hERG current change (%, negative = inhibition) at 1uM” value was -4.01%.

With `Cc1ccc2nc(-c3cc(N)cc(N)c3)oc2c1`, the “hERG current change (%, negative = inhibition) at 1uM” value is 18.3%.

On to `COc1ccc(-c2cc3nc(C)n(N)c(=O)c3s2)cc1`, for which the “hERG current change (%, negative = inhibition) at 1uM” value is 10.2%.

As to `Cc1nn(C(C)C(=O)NCCCN(Cc2ccccc2)C(C)C)c(=O)c2c1sc1ccccc12` (stereo not drawn), the “hERG current change (%, negative = inhibition) at 1uM” value is listed as 6.54%.

For `CCCC[C@@H]1CNCCN1CCCc1cc(OC)c(OC)c(OC)c1`, the “hERG current change (%, negative = inhibition) at 1uM” value came out at 7.55%.

With `Br.CCCn1c(=N)n(CC(=O)c2ccc(Cl)cc2)c2ccccc21`, the “hERG current change (%, negative = inhibition) at 1uM” value is listed as -8.59%.

With `COc1ccc(C(=O)CSc2nnc(CN3CCCCC3)n2-c2ccc(F)cc2)cc1OC`, the “hERG current change (%, negative = inhibition) at 1uM” value was determined as 13.6%.

Turning to `COc1cc(CCC(=O)OCc2ccccc2C#N)cc(OC)c1OC`, the “hERG current change (%, negative = inhibition) at 1uM” value came out at 10.5%.

In the case of `COC(=O)C1=C(c2cccc(OCc3ccccc3)c2)C[C@@H]2CC[C@H]1N2C(=O)NCc1ccc(N(C)C)cc1`, the “hERG current change (%, negative = inhibition) at 1uM” value is listed as 11.1%.

Turning to `CC(C)CC(=O)NCCNC(=O)c1cc(OCC(F)(F)F)ccc1OCC(F)(F)F`, the “hERG current change (%, negative = inhibition) at 1uM” value came out at 12.1%.

As for `N#CCCN(C(=O)COC(=O)c1ccc(S(=O)(=O)N2CCCCCC2)cc1)c1ccccc1`, the “hERG current change (%, negative = inhibition) at 1uM” value came to 8.64%.

Turning to `Clc1ccccc1Cn1nnc2ccccc21`, the “hERG current change (%, negative = inhibition) at 1uM” value turned out to be 6.7%.

In the case of `CCSc1nc2c(c(=O)[nH]1)C(c1ccccn1)C1=C(CC(C)(C)CC1=O)N2` (stereo not drawn), the “hERG current change (%, negative = inhibition) at 1uM” value was 3.38%.

Take `COc1ccc2[nH]c(C)c(CCN3CCC(=O)C(C)C3C)c2c1.Cl` (stereo not drawn): the “hERG current change (%, negative = inhibition) at 1uM” value is -9.07%.

Take `COc1ccc(C2C(C(=O)N3CCOCC3)CCC(=O)N2c2cc(OC)c(OC)c(OC)c2)cc1` (stereo not drawn): the “hERG current change (%, negative = inhibition) at 1uM” value was determined as 14.9%.

On to `CSC1=C(C#N)C(c2ccccc2Cl)C(C(=O)c2cccs2)C(O)(C(F)(F)F)N1` (stereo not drawn), for which the “hERG current change (%, negative = inhibition) at 1uM” value stood at 1.01%.
